Assay results taken from PubChem BioAssay AID686971 (National Center for Advancing Translational Sciences (NCATS), 2013).
The whole screen tested about 360,000 compounds, of which about 7,500 (2.1%) were called active. The inconclusive results got no clear call from the source; some entries with a clear call stand among them for comparison. Calls come from the whole dose curve; as a rule, active = well fitted cell-killing curve with a large enough effect; inconclusive = small, poorly fitted or top-dose-only effect, or effect the other way, or another doubt; inactive = no such curve, though single readings can be large or run the other way. Potencies of inconclusive entries are left out as doubtful fits.
Potency is the fitted concentration of half-maximal effect; tags give direction and shape of the fitted curve.

Assay: qHTS for induction of synthetic lethality in tumor cells producing 2HG: qHTS for the HT-1080-IDH1KD cell line;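 for activity, negative = toxicity: 0% = DMSO wells and -100% = cell-free medium wells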
Settings: HT-1080 IDH1 knockdown viability, ATP luminescence, 48 h; activity, negative = toxicity: at 46.1 µM (top of the series) unless noted
Method in brief: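 HT-1080-IDH1KD cells (IDH1 knocked down), 750/well in RPMI with 5% FBS, treated with compound 48 h at 37 degrees C. Viability by CellTiter-Glo luminescence, normalised to DMSO and no-cell wells; concentration-response curves classed.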
For O=C(Nc1ccc(Cl)cn1)c1cccc(F)c1, the Potency was active: 8.2 µM.
With CC(C)NC(=O)C1(C)CN(S(C)(=O)=O)CC(=O)N1Cc1cccc(C(F)(F)F)c1 (stereo not drawn) the “activity, negative = toxicity” value was inactive: -15.2%.
With Cc1ccccc1Cn1c(=O)n(C)c(=O)c2sccc21 the “activity, negative = toxicity” value was inactive: -10.3%.
In the case of O=[N+]([O-])/C(N=Nc1ccccc1)=N\Nc1ccccc1, the Potency is reported as inconclusive [cytotoxic, single point].
With CCOC(=O)C1=C(C)N(c2ccccc2)C(=O)/C1=C\c1ccc(O)c(OC)c1 the Potency was inconclusive [cytotoxic, single point].
For O=C1/C(=C/c2ccc(O)cc2)COc2ccccc21, the Potency was inconclusive [cytotoxic, partial curve].
With OCC1(Cc2ccc(F)cc2)CCCN(Cc2ccc(F)cc2Cl)C1 (stereo not drawn) the Potency was inconclusive [cytotoxic, single point].
In the case of Cc1c(NC(=O)c2noc3c2CCc2ccccc2-3)c(=O)n(-c2ccccc2)n1C, the “activity, negative = toxicity” value is reported as inactive: -1.16%.
In the case of CSc1ccccc1NC(=O)c1cc(-c2cccs2)on1, the Potency is reported as inconclusive [cytotoxic, single point].
For COc1cccc(C#CC2=CC(=O)C[C@H](c3ccc(F)cc3)C2)c1, the Potency was inconclusive [cytotoxic, single point].
In the case of Cc1cccc(Sc2ccc([N+](=O)[O-])cc2[N+](=O)[O-])n1, the Potency is reported as active: 18.4 µM.
For COC(=O)c1ccc(-c2sc3nc(N4CCOCC4)c4c(c3c2N)CCCC4)o1, the “activity, negative = toxicity” value was inactive: 1.47%.
For Cc1cc(Nc2ccc(Br)cc2)nc2ccccc12, the Potency was inconclusive [cytotoxic, single point].
For O=C(COc1ccc2oc(-c3ccccc3)cc(=O)c2c1)NCc1ccco1, the Potency was inconclusive [cytotoxic, single point].
For O=C(Nc1ccc(C(=O)N2CCOCC2)cc1)c1ccccc1Cl, the “activity, negative = toxicity” value was inactive: -2.86%.
For O=[N+]([O-])c1ccc(/C=N/Nc2cc(Cl)nc(-c3ccccc3)n2)cc1, the “activity, negative = toxicity” value was inactive: 19.4%.
In the case of CS/C(N)=N/N=C/c1c(O)ccc2ccccc12, the Potency is reported as inconclusive [cytotoxic, single point].
With O=C(CCl)NC(Cc1ccccc1)c1ccccc1 (stereo not drawn) the Potency was active: 16.4 µM.
In the case of COc1ccc2c(c1)CCC(C)N2C(=O)C(=O)c1c[nH]c2ccccc12 (stereo not drawn), the “activity, negative = toxicity” value is reported as inactive: 3.08%.
With O=c1[nH]c(=O)n(C2CC(O)C(CO)O2)cc1Br (stereo not drawn) the Potency was inconclusive [rising, partial curve].
In the case of Cc1ccc2nc(-c3ccc4c(c3)OCCO4)cc(C(=O)O)c2c1, the Potency is reported as inconclusive [cytotoxic, single point].
With Clc1cccc(Cl)c1/C=C/c1nc2ccccc2[nH]1 the Potency was inconclusive [cytotoxic, single point].
For COc1ccc(CCNC(=O)c2sc(=S)n(C)c2N)cc1, the Potency was inconclusive [cytotoxic, single point].
In the case of COc1ccc(CN2CCc3ccc(NC(=O)CCc4ccccc4OC)cc3C2)c(O)c1, the Potency is reported as inconclusive [cytotoxic, single point].
In the case of Cc1ccc(NC(=O)/C=N/OCC(=O)NCc2ccccc2Cl)cc1, the “activity, negative = toxicity” value is reported as inactive: -12.1%.
In the case of CCOc1ccc(OCc2ccc(C(=O)N/N=C(\C)c3ccccn3)cc2)cc1, the Potency is reported as inconclusive [cytotoxic, full curve].
For COc1ccccc1N1CCN(C2CCCN(C(=O)c3csc(C)n3)C2)CC1 (stereo not drawn), the “activity, negative = toxicity” value was inactive: 1.77%.
For COc1cc(/C=N/NC(=O)NC23CC4CC(CC(C4)C2)C3)ccc1OCC(N)=O, the “activity, negative = toxicity” value was inactive: 2.01%.
For CC(=O)Nc1ccc(-c2nnc(SCC(=O)c3ccc4c(c3)Cc3ccccc3-4)n2C)cc1, the Potency was inconclusive [cytotoxic, single point].
In the case of O=C(CSc1nnnn1C1CCCCC1)Nc1nc2c(s1)CCCC2, the “activity, negative = toxicity” value is reported as inactive: -0.0702%.
For CCOC(=O)c1c(NC(NC(C)=O)C(Cl)(Cl)Cl)sc2c1CCCC2 (stereo not drawn), the “activity, negative = toxicity” value was inactive: -29.4%.
With Cc1ccc(-c2noc(CCCC(=O)NC3CCCC3)n2)cc1 the Potency was inconclusive [cytotoxic, partial curve].
With COc1cccc(C(=O)NC2CC3CCCC(C2)N3CC(=O)Nc2ccccc2C(F)(F)F)c1 (stereo not drawn) the Potency was inconclusive [cytotoxic, partial curve, poor fit].
With CC(CNC(=S)Nc1cc(F)cc(F)c1)CSc1ccc(Cl)cc1 (stereo not drawn) the Potency was inconclusive [cytotoxic, single point].
For Cc1ccccc1CN(C)Cc1cc(=O)oc2c(C)c(C)ccc12, the Potency was inconclusive [cytotoxic, partial curve].
With Cc1ccc(NC(=O)NNC(=O)c2snnc2C)cc1 the “activity, negative = toxicity” value was inactive: 0.463%.
For CC(C)CC1C(C#N)=C(N)OC2=C1C(=O)CC(c1ccccc1)C2 (stereo not drawn), the “activity, negative = toxicity” value was inactive: -1.58%.
In the case of O=C(c1ccccc1Cc1ccccc1)N1CCN(S(=O)(=O)c2ccccc2[N+](=O)[O-])CC1, the “activity, negative = toxicity” value is reported as inactive: -18.8%.
In the case of Cc1nnc(N/N=C/c2ccc(Br)cc2)n1N, the Potency is reported as active: 23.1 µM.
For CC(O)CNc1cnccn1 (stereo not drawn), the “activity, negative = toxicity” value was inactive: 13.6%.
For CC1=CC(=NOC(=O)c2cccc([N+](=O)[O-])c2)C=C(C)C1=O, the Potency was inconclusive [cytotoxic, single point].
In the case of Nc1cc2c(cc1C(=O)c1cccc(Br)c1)OCCO2, the Potency is reported as inconclusive [cytotoxic, partial curve].
For Nc1c(C(=O)Nc2ccccc2)c2nc3ccccc3nc2n1-c1ccc(O)cc1, the Potency was inconclusive [cytotoxic, partial curve].
For CC1(C(=O)NCc2cccc3ccccc23)CCN1CCc1ccccc1 (stereo not drawn), the Potency was inconclusive [cytotoxic, single point].
For CC(=O)OC1CCC2C3CCc4cc(O)ccc4C3CCC12C (stereo not drawn), the Potency was inconclusive [cytotoxic, single point].
In the case of CC1=C(CC(=O)c2ccccc2)C(=O)c2ccccc2C1=O, the Potency is reported as inconclusive [cytotoxic, single point].
With COc1ccc2[nH]c(CN3CCC(n4nccc4NC(=O)C4CC4)CC3)c(C)c2c1 the “activity, negative = toxicity” value was inactive: -4.2%.
In the case of CCCCn1c(N2CCC(Cc3ccccc3)CC2)nc2c1c(=O)[nH]c(=O)n2C, the Potency is reported as inconclusive [cytotoxic, single point].
